Laboratory results taken from publication PMC10184828.
No constants are given. Whether binding was seen depends on the method and setting. In cells and extracts the contact can be indirect. Some results given as binding are weak or reduced against the parent protein; the word gives no strength. Where a sequence is shown, tags or fusion partners need not be part of it.

By UniProt entry, the sequences of proteins in these tests, tags left out.
UniProt P48415: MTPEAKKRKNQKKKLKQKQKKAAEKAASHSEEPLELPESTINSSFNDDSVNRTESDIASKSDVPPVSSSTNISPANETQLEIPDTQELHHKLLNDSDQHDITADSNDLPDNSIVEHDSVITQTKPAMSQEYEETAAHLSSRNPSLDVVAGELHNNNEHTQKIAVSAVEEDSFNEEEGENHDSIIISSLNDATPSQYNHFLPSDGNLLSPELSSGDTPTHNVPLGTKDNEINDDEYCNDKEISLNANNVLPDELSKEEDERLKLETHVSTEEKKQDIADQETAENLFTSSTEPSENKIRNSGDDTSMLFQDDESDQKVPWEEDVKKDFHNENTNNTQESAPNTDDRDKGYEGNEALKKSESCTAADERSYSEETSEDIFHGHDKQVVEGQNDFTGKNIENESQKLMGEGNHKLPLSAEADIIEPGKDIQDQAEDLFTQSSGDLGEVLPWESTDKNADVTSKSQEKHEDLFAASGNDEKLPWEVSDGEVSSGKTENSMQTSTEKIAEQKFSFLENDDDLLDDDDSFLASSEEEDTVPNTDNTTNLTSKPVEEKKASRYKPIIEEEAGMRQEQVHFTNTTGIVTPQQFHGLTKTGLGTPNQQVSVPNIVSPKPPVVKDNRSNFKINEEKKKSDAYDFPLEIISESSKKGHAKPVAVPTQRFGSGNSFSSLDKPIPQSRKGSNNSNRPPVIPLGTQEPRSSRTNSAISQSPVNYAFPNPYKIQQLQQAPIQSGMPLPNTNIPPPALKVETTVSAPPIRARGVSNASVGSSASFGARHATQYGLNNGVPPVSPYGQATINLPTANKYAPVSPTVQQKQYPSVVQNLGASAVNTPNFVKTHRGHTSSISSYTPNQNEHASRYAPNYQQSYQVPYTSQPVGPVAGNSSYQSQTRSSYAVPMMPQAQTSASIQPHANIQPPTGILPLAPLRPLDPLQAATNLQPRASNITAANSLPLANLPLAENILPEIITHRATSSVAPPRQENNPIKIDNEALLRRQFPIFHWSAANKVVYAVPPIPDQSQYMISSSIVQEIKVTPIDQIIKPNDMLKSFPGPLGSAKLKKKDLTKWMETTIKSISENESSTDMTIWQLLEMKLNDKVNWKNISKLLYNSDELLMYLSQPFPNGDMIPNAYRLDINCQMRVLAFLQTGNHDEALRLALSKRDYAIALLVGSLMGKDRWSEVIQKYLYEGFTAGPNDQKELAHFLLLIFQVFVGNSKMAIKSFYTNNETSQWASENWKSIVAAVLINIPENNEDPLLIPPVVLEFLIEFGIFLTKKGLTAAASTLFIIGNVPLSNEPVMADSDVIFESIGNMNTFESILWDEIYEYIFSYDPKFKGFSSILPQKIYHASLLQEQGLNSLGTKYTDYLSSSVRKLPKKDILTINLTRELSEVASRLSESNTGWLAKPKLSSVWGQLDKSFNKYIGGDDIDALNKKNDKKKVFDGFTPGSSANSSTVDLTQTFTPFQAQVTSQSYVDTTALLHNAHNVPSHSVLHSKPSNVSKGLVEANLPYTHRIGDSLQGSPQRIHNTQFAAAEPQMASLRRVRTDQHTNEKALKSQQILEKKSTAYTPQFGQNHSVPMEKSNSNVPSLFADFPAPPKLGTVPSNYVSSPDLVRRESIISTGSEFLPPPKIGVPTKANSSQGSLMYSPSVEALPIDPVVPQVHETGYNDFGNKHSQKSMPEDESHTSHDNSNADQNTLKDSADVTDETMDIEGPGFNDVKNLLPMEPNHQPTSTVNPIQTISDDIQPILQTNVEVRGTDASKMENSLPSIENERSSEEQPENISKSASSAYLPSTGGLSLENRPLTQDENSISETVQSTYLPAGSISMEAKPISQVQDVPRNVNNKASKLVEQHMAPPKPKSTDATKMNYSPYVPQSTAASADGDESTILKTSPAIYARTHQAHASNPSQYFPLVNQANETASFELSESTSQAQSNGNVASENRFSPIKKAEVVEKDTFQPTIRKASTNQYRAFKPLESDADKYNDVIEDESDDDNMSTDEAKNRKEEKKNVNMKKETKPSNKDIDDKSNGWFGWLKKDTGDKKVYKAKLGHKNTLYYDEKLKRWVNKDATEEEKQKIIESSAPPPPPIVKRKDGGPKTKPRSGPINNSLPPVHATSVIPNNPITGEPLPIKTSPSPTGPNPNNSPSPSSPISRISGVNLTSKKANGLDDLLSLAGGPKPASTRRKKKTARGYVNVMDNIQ

Assays:
Test in all cases: co-IP; octylglucoside-solubilized extracts of sed4Δ sec16Δ cells; immunoprecipitation with anti-V5 antibody, blot with anti-HA and anti-V5; 25 mM HEPES pH 8.0, 50 mM NaCl, 1 mM EDTA, 5% glycerol, 4°C
[1] = target: T1, Sed4^ΔHDEL–V5 (S. cerevisiae) (UniProt P25365)
T1 sequence: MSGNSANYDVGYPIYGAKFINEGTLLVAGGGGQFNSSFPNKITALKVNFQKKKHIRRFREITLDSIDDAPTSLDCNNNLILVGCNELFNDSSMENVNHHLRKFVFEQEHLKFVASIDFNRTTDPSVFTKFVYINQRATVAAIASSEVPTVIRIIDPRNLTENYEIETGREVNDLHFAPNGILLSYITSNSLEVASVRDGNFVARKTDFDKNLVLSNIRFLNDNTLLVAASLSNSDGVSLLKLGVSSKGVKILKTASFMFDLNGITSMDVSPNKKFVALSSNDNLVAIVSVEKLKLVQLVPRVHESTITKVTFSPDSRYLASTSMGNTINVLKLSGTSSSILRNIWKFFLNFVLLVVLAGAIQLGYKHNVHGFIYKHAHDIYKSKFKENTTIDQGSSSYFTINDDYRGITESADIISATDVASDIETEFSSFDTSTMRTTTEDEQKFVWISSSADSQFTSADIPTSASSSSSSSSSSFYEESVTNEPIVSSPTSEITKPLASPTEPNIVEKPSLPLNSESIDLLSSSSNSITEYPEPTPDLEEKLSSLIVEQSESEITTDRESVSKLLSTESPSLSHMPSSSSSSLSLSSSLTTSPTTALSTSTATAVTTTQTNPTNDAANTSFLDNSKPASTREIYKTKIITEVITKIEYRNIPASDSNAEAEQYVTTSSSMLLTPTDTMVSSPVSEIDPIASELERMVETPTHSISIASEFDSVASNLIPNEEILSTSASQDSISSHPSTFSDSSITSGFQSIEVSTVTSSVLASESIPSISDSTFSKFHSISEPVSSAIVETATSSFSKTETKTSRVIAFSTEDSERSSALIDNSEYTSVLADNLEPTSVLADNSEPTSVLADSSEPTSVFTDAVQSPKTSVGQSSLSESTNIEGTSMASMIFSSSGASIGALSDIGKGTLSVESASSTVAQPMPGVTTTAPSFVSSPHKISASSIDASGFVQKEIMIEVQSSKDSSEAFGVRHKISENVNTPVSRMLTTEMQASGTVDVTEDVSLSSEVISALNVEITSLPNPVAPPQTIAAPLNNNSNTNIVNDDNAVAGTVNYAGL

Sed4–V5 (S. cerevisiae) = target: T2, Sed4–V5 (S. cerevisiae) (UniProt P25365)
T2 sequence: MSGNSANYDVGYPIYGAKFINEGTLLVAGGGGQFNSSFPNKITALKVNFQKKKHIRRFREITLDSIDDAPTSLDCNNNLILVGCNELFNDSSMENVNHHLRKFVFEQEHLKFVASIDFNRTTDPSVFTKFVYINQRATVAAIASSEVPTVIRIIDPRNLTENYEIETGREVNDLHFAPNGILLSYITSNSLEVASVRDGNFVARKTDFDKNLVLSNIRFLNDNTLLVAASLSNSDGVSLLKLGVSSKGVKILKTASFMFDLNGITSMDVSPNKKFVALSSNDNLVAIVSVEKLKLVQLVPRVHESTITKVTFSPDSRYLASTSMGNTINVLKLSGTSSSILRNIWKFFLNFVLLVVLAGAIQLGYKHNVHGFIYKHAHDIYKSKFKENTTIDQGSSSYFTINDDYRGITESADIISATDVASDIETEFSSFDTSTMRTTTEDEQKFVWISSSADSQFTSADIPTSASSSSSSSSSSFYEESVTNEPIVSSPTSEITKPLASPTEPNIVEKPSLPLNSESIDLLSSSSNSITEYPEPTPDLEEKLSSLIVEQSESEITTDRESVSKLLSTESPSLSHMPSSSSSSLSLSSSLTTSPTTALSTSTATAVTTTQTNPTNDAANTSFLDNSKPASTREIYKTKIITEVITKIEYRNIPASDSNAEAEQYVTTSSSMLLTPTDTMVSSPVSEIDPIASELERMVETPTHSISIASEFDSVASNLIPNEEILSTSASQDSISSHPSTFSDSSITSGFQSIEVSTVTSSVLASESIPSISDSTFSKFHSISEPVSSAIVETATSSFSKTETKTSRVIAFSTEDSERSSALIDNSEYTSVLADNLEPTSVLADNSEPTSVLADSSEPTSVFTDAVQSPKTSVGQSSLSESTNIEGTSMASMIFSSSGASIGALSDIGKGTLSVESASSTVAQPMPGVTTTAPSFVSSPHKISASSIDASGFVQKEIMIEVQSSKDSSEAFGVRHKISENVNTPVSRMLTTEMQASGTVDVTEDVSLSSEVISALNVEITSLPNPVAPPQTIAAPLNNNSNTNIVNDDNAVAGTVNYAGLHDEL

[2] = target: T3, Sed4–V5^HDEL (S. cerevisiae) (UniProt P25365)
T3 sequence: T2 sequence

Measured: binding

Sec16–HA (from UniProt P48415 1-2195)
binds: [1] | Sed4–V5 (S. cerevisiae) | [2]
